# Measurements: the supplement of paper PMC8728848
# This is one part of the list.
# What was measured:
# Assay in all cases: glycan array binding signal (z-score within array); higher = stronger binding
# Details in all cases: glycan notation: IUPAC condensed, linker removed
# [1] = target: Fuc(a1-2)Gal
# Method in brief: (§1)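 Glycan array data came from 3228 arrays in the Consortium for Functional Glycomics database, and only arrays with an available protein sequence were kept. Glycan names were put into IUPAC-condensed notation, and columns mapping to the same glycan were averaged. The binding signal is a within-array Z-score, averaged across arrays of one protein sequence run at different concentrations or buffers and across linkers. A negative Z-score can be read as non-binding.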
# [2] = target: Fuc(a1-2)Gal(b1-3)GalNAc
# Method in brief: as §1
# [3] = target: Fuc(a1-2)Gal(b1-3)GalNAc(b1-3)Gal
# Method in brief: as §1
# [4] = target: Fuc(a1-2)Gal(b1-3)GalNAc(b1-3)Gal(a1-4)Gal(b1-4)Glc
# Method in brief: as §1
# [5] = target: Fuc(a1-2)Gal(b1-3)GalNAc(b1-3)Gal(b1-4)Glc
# Method in brief: as §1
# [6] = target: Fuc(a1-2)Gal(b1-3)GalNAc(b1-4)[Neu5Ac(a2-3)]Gal(b1-4)Glc
# Method in brief: as §1
# [7] = target: Fuc(a1-2)Gal(b1-3)[Fuc(a1-4)]GlcNAc
# Method in brief: as §1
# [8] = target: Fuc(a1-2)Gal(b1-4)Glc
# Method in brief: as §1
# [9] = target: Fuc(a1-2)Gal(b1-4)GlcNAc
# Method in brief: as §1
# [10] = target: Fuc(a1-2)Gal(b1-4)GlcNAc(b1-3)Gal(b1-4)GlcNAc
# Method in brief: as §1
# [11] = target: Fuc(a1-2)Gal(b1-4)GlcNAc(b1-3)Gal(b1-4)GlcNAc(b1-3)Gal(b1-4)GlcNAc
# Method in brief: as §1
# [12] = target: Fuc(a1-2)Gal(b1-4)[Fuc(a1-3)]GalNAc(b1-3)Gal(b1-4)[Fuc(a1-3)]GlcNAc
# Method in brief: as §1
# [13] = target: Fuc(a1-2)Gal(b1-4)[Fuc(a1-3)]GalNAc(b1-3)Gal(b1-4)[Fuc(a1-3)]GlcNAc(b1-3)Gal(b1-4)[Fuc(a1-3)]GalNAc
# Method in brief: as §1
# [14] = target: Fuc(a1-2)Gal(b1-4)[Fuc(a1-3)]GlcNAc
# Method in brief: as §1
# [15] = target: Fuc(a1-2)GlcNAc
# Method in brief: as §1
# [16] = target: Fuc(a1-2)[Gal(a1-3)]Gal
# Method in brief: as §1
# [17] = target: Fuc(a1-2)[Gal(a1-3)]Gal(b1-3)GlcNAc
# Method in brief: as §1
# [18] = target: Fuc(a1-2)[Gal(a1-3)]Gal(b1-4)Glc
# Method in brief: as §1
# [19] = target: Fuc(a1-2)[Gal(a1-3)]Gal(b1-4)GlcNAc
# Method in brief: as §1
# [20] = target: Fuc(a1-2)[Gal(a1-3)]Gal(b1-4)[Fuc(a1-3)]GlcNAc
# Method in brief: as §1
# [21] = target: Fuc(a1-2)[Gal(a1-4)]Gal(b1-4)GalNAc
# Method in brief: as §1
# [22] = target: Fuc(a1-2)[GalNAc(a1-3)]Gal
# Method in brief: as §1
# [23] = target: Fuc(a1-2)[GalNAc(a1-3)]Gal(b1-3)GlcNAc
# Method in brief: as §1
# [24] = target: Fuc(a1-2)[GalNAc(a1-3)]Gal(b1-4)Glc
# Method in brief: as §1
# [25] = target: Fuc(a1-2)[GalNAc(a1-3)]Gal(b1-4)GlcNAc
# Method in brief: as §1
# [26] = target: Fuc(a1-2)[GalNAc(a1-3)]Gal(b1-4)[Fuc(a1-3)]GlcNAc
# Method in brief: as §1
# [27] = target: Fuc(a1-2)[GalNAc(a1-4)]Gal(b1-4)GlcNAc
# Method in brief: as §1
# [28] = target: Fuc(a1-3)GlcNAc
# Method in brief: as §1
# [29] = target: Fuc(a1-3)[Gal(b1-4)]GlcNAc
# Method in brief: as §1
# [30] = target: Fuc(a1-3)[Gal(b1-4)]GlcNAc(b1-4)Gal(b1-4)[Fuc(a1-3)]GlcNAc
# Method in brief: as §1
# [31] = target: Fuc(a1-3)[Gal(b1-4)]GlcNAc(b1-4)Gal(b1-4)[Fuc(a1-3)]GlcNAc(b1-4)Gal(b1-4)[Fuc(a1-3)]GlcNAc
# Method in brief: as §1
# [32] = target: Fuc(a1-3)[Gal3S(b1-4)]GlcNAc
# Method in brief: as §1
# [33] = target: Fuc(a1-3)[GalNAc(b1-4)]Gal(b1-4)GlcNAc
# Method in brief: as §1
# [34] = target: Fuc(a1-4)GlcNAc
# Method in brief: as §1
# [35] = target: Fuc(b1-3)GlcNAc
# Method in brief: as §1
# [36] = target: Gal(a1-2)Gal
# Method in brief: as §1
# [37] = target: Gal(a1-3)Gal
# Method in brief: as §1
# [38] = target: Gal(a1-3)Gal(b1-3)Glc
# Method in brief: as §1
# [39] = target: Gal(a1-3)Gal(b1-3)GlcNAc
# Method in brief: as §1
# [40] = target: Gal(a1-3)Gal(b1-4)GlcNAc
# Method in brief: as §1
# [41] = target: Gal(a1-3)Gal(b1-4)[Fuc(a1-3)]GalNAc
# Method in brief: as §1
# [42] = target: Gal(a1-3)GlcNAc
# Method in brief: as §1
# [43] = target: Gal(a1-3)[Gal(a1-4)]Gal(b1-4)GlcNAc
# Method in brief: as §1
# [44] = target: Gal(a1-4)Gal(b1-4)Gal
# Method in brief: as §1
# [45] = target: Gal(a1-4)Gal(b1-4)GalNAc
# Method in brief: as §1
# [46] = target: Gal(a1-4)GlcNAc
# Method in brief: as §1
# [47] = target: Gal(a1-6)Glc
# Method in brief: as §1
# [48] = target: Gal(b1-2)Gal
# Method in brief: as §1
# [49] = target: Gal(b1-3)Gal
# Method in brief: as §1
# [50] = target: Gal(b1-3)GalNAc
# Method in brief: as §1
# [51] = target: Gal(b1-3)GalNAc(b1-3)Gal(a1-4)Gal(b1-4)Glc
# Method in brief: as §1
# [52] = target: Gal(b1-3)GalNAc(b1-3)Gal(b1-4)Glc
# Method in brief: as §1
# [53] = target: Gal(b1-3)GalNAc(b1-3)Gal(b1-4)GlcNAc
# Method in brief: as §1
# [54] = target: Gal(b1-3)GalNAc(b1-4)Gal(b1-4)Glc
# Method in brief: as §1
# [55] = target: Gal(b1-3)GalNAc(b1-4)[Neu5Ac(a2-3)]Gal(b1-4)Glc
# Method in brief: as §1
# [56] = target: Gal(b1-3)[Fuc(a1-4)]GlcNAc
# Method in brief: as §1
# [57] = target: Gal(b1-3)[Fuc(a1-4)]GlcNAc(b1-3)Gal(b1-4)GlcNAc
# Method in brief: as §1
# [58] = target: Gal(b1-3)[Fuc(a1-4)]GlcNAc(b1-3)Gal(b1-4)[Fuc(a1-3)]GlcNAc
# Method in brief: as §1
# [59] = target: Gal(b1-3)[GlcNAc(b1-6)]GalNAc
# Method in brief: as §1
# [60] = target: Gal(b1-3)[GlcNAc(b1-6)]GlcNAc
# Method in brief: as §1
binder,measurement,setting,value
"Crocus Lectin (Crocus vernus), Q9FVA1 (protein) MAKSLVLSSLLLALLLAAPLASLADNNVLLTGDVLHTDNQLSFESAAFVMQGDCNLVLYNEAGGFQSNTHGRGVGCTLRLNNFGQLEIHSANSNTPVWVSLRNGIPVRGDYAAVLGPDQHVTIYGPAIWSTPAPNRHERGATVSNIPRVRNVLFSSQVMSDNAQLATRDYSLVMRDDCNLALTKGSKTNIVWESGTSGRGQHCFMRLGHTGLIEISDDRLNTVWRSNTVGQEGDYVLILQINGQAVVYGPAVWSTASPARGGASAAL",glycan array binding signal (z-score),[1],-0.176
same,glycan array binding signal (z-score),[2],-0.163
same,glycan array binding signal (z-score),[3],-0.174
same,glycan array binding signal (z-score),[4],-0.162
same,glycan array binding signal (z-score),[5],-0.185
same,glycan array binding signal (z-score),[6],-0.131
same,glycan array binding signal (z-score),[7],-0.19
same,glycan array binding signal (z-score),[8],-0.184
same,glycan array binding signal (z-score),[9],-0.173
same,glycan array binding signal (z-score),[10],-0.161
same,glycan array binding signal (z-score),[11],-0.146
same,glycan array binding signal (z-score),[12],-0.182
same,glycan array binding signal (z-score),[13],-0.172
same,glycan array binding signal (z-score),[14],-0.181
same,glycan array binding signal (z-score),[15],-0.156
same,glycan array binding signal (z-score),[16],-0.181
same,glycan array binding signal (z-score),[17],-0.175
same,glycan array binding signal (z-score),[18],-0.168
same,glycan array binding signal (z-score),[19],-0.175
same,glycan array binding signal (z-score),[20],-0.178
same,glycan array binding signal (z-score),[21],-0.185
same,glycan array binding signal (z-score),[22],-0.115
same,glycan array binding signal (z-score),[23],-0.144
same,glycan array binding signal (z-score),[24],-0.181
same,glycan array binding signal (z-score),[25],-0.177
same,glycan array binding signal (z-score),[26],-0.159
same,glycan array binding signal (z-score),[27],-0.183
same,glycan array binding signal (z-score),[28],-0.17
same,glycan array binding signal (z-score),[29],-0.17
same,glycan array binding signal (z-score),[30],-0.177
same,glycan array binding signal (z-score),[31],-0.186
same,glycan array binding signal (z-score),[32],-0.187
same,glycan array binding signal (z-score),[33],-0.187
same,glycan array binding signal (z-score),[34],-0.194
same,glycan array binding signal (z-score),[35],-0.163
same,glycan array binding signal (z-score),[36],-0.174
same,glycan array binding signal (z-score),[37],-0.177
same,glycan array binding signal (z-score),[38],-0.169
same,glycan array binding signal (z-score),[39],-0.177
same,glycan array binding signal (z-score),[40],-0.172
same,glycan array binding signal (z-score),[41],-0.181
same,glycan array binding signal (z-score),[42],-0.181
same,glycan array binding signal (z-score),[43],-0.177
same,glycan array binding signal (z-score),[44],-0.177
same,glycan array binding signal (z-score),[45],-0.185
same,glycan array binding signal (z-score),[46],-0.183
same,glycan array binding signal (z-score),[47],-0.179
same,glycan array binding signal (z-score),[48],-0.167
same,glycan array binding signal (z-score),[49],-0.192
same,glycan array binding signal (z-score),[50],0.009
same,glycan array binding signal (z-score),[51],-0.181
same,glycan array binding signal (z-score),[52],-0.192
same,glycan array binding signal (z-score),[53],-0.147
same,glycan array binding signal (z-score),[54],0.044
same,glycan array binding signal (z-score),[55],0.027
same,glycan array binding signal (z-score),[56],-0.136
same,glycan array binding signal (z-score),[57],-0.19
same,glycan array binding signal (z-score),[58],-0.071
same,glycan array binding signal (z-score),[59],-0.197
same,glycan array binding signal (z-score),[60],-0.143
